According to the supplement of paper PMC10126150:
Sequences with one replicate were seen in a single cluster, so their values are uncertain.

Test system: ATP
Assay: switch fluorescence ratio, 500 uM ATP over buffer (Cy3 cluster intensity, sum of 5 cycles each) (fold (ratio)); higher = stronger signal-on switching upon ATP binding; sequences stand for … in TCGTCGGCAGCGTCAGATGTGTATAAGAGACAGTTTTTTTTTTTTTTTTTTTTTTTTT…TC
Details: aptamer strand: ATP DNA aptamer (quencher-CACCTGGGGGAGTATTGCGGAGGAAGG + anchor), 100 nM annealed; ATP concentration: 500 uM; one replicate
Procedure, shortened: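 Exposure to 500 uM ATP lasted 15 min at 22 °C before imaging, and a selection-buffer image was taken beforehand, for Cy3-labelled switching-strand clusters on a modified Illumina MiSeq flow-cell annealed to 100 nM quencher-labelled ATP aptamer. Five buffer/ATP cycles were run with NaOH stripping and re-annealing between them. The fluorescence ratio per cluster is summed target-cycle over summed buffer-cycle Cy3 intensity, averaged per switch-domain sequence. Clusters outside 100-1000 RFU were excluded.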

| Sequence | switch fluorescence ratio |
| --- | --- |
| AATCCTGGCT | 1.02 |
| AATCCTTTGG | 1.02 |
| AATCGAGCAT | 1.08 |
| AATCGAGTCG | 1 |
| AATCGATTGA | 0.971 |
| AATCGGGGGC | 0.998 |
| AATCGGGGTA | 0.976 |
| AATCGGTCGA | 1.07 |
| AATCGGTCGG | 1.03 |
| AATCGTAAAG | 1.05 |
| AATCGTACTT | 1.05 |
| AATCGTTCGT | 1.03 |
| AATCGTTGTA | 0.999 |
| AATCTAAGTT | 0.959 |
| AATCTACACC | 1.16 |
| AATCTACGGC | 1.1 |
| AATCTATAAA | 0.971 |
| AATCTCAGCA | 1.12 |
| AATCTCGATA | 0.972 |
| AATCTCTGTA | 1.05 |
| AATCTGATAA | 1 |
| AATCTGGCT | 1.02 |
| AATCTGTTTC | 0.966 |
| AATCTTACAT | 1.01 |
| AATCTTGT | 0.947 |
| AATGAAAAGG | 0.964 |

| Sequence | switch fluorescence ratio |
| --- | --- |
| AATGAAAGAA | 1.01 |
| AATGAACTTA | 1.06 |
| AATGACAGCA | 1.06 |
| AATGACCACA | 1.04 |
| AATGAGAAC | 1.03 |
| AATGAGGTCC | 0.948 |
| AATGATACTG | 0.97 |
| AATGATGACC | 0.956 |
| AATGATTCGA | 0.988 |
| AATGCACTGT | 1.05 |
| AATGCAGACG | 1.1 |
| AATGCAGAGC | 0.946 |
| AATGCATAAG | 0.988 |
| AATGCCGCGG | 1 |
| AATGCGGATC | 1.05 |
| AATGCTCATT | 0.949 |
| AATGCTTCCC | 1.35 |
| AATGGAGACT | 1.19 |
| AATGGATCCC | 1.06 |
| AATGGATCTT | 0.93 |
| AATGGCCCGC | 1 |
| AATGGCCTGC | 0.967 |
| AATGGCTTTA | 1.01 |
| AATGGGAATC | 0.973 |
| AATGGGCTGT | 0.979 |
| AATGGGGAAC | 1 |

| Sequence | switch fluorescence ratio |
| --- | --- |
| AATGGGTTGC | 1 |
| AATGTATAGG | 0.977 |
| AATGTATGCA | 0.974 |
| AATGTCATTC | 1.01 |
| AATGTCCACG | 1.01 |
| AATGTCCAGT | 1.02 |
| AATGTGGCTT | 1.08 |
| AATGTGGGCG | 0.98 |
| AATGTGTCGA | 1.06 |
| AATGTTGGAT | 0.981 |
| AATGTTGTA | 1 |
| AATTAGAGGC | 1.02 |
| AATTAGCATG | 1.01 |
| AATTAGGTCC | 0.999 |
| AATTAGTAGG | 0.981 |
| AATTAGTCCT | 1.01 |
| AATTAGTTA | 1.02 |
| AATTATCTTC | 1.11 |
| AATTATGTGG | 0.979 |
| AATTCAACCG | 1.07 |
| AATTCAATC | 1.02 |
| AATTCGATGG | 1.02 |
| AATTCGGCG | 1.05 |
| AATTCGTTCG | 1.03 |
| AATTCTTCTT | 1.01 |
| AATTGACAGA | 0.999 |

| Sequence | switch fluorescence ratio |
| --- | --- |
| AATTGAGGTG | 1.03 |
| AATTGATAAG | 1.03 |
| AATTGCAGGC | 1.1 |
| AATTGCGCA | 1.08 |
| AATTGCTCTA | 0.951 |
| AATTGGACCG | 1.05 |
| AATTGGACGG | 0.966 |
| AATTGGCACA | 1 |
| AATTGGTGTG | 0.988 |
| AATTGTGTAG | 1.03 |
| AATTGTTTAC | 0.987 |
| AATTTATGTG | 1.02 |
| AATTTGCCGG | 0.967 |
| AATTTGCTGA | 0.995 |
| AATTTGGTAG | 0.954 |
| AATTTGGTC | 0.923 |
| AATTTTAAAG | 0.972 |
| AATTTTTGAA | 0.961 |
| AATTTTTGGT | 1.01 |
| ACAAAAGCTC | 1.01 |
| ACAAAAGTAA | 1.04 |
| ACAAACAGGG | 1.25 |
| ACAAATTGCT | 1.02 |
| ACAACAGATT | 0.986 |
| ACAACGCAAA | 5.34 |
| ACAACTCTCA | 1.01 |

| Sequence | switch fluorescence ratio |
| --- | --- |
| ACAACTTATT | 1 |
| ACAAGACAC | 1.13 |
| ACAAGCGCTA | 1.04 |
| ACAAGCTGGG | 0.944 |
| ACAAGGAGT | 0.98 |
| ACAAGGGCAC | 0.991 |
| ACAAGGGTCT | 1.02 |
| ACAAGGTTTT | 1.04 |
| ACAATCACC | 1.15 |
| ACAATCAGGC | 0.965 |
| ACAATCGGTC | 1.05 |
| ACAATGATCG | 0.991 |
| ACAATGGTTG | 0.967 |
| ACAATTAGTT | 0.988 |
| ACAATTGATT | 1.03 |
| ACACAAGTTG | 0.998 |
| ACACAGATCA | 1.03 |
| ACACCAGCGA | 0.732 |
| ACACCGACCG | 1.33 |
| ACACCGAGTT | 1.09 |
| ACACCGTAGA | 1.04 |
| ACACCTCCCG | 1.25 |
| ACACGACC | 1.36 |
| ACACGAGTCT | 0.972 |
| ACACGCTAAC | 2.19 |
| ACACGCTGAA | 1.07 |

| Sequence | switch fluorescence ratio |
| --- | --- |
| ACACGGAAAG | 1.06 |
| ACACGGCTCC | 1.04 |
| ACACGGTGTA | 1.03 |
| ACACTGAAAT | 1.04 |
| ACACTGAGGA | 1.49 |
| ACACTGAGGT | 1 |
| ACACTGCG | 1 |
| ACACTGGATC | 1.02 |
| ACACTTATAA | 1.01 |
| ACACTTGGGG | 0.949 |
| ACACTTTGGT | 0.98 |
| ACAGAAAGCG | 1.03 |
| ACAGAACATT | 1.04 |
| ACAGAAGTTG | 0.993 |
| ACAGAATCAC | 1.62 |
| ACAGAGATTC | 1.02 |
| ACAGAGGGCT | 1.03 |
| ACAGATGCAA | 0.981 |
| ACAGCAGAGG | 1.04 |
| ACAGCCGTTT | 1.05 |
| ACAGCCTATG | 0.937 |
| ACAGCGGGG | 1.02 |
| ACAGGAGGAT | 0.984 |
| ACAGGATCAT | 1.04 |
| ACAGGATTAA | 1 |
| ACAGGCAAGC | 1.28 |

| Sequence | switch fluorescence ratio |
| --- | --- |
| ACAGGCCTCC | 1.1 |
| ACAGGGTCT | 1.03 |
| ACAGGTCCGT | 1.06 |
| ACAGGTCTTA | 1.02 |
| ACAGGTGAAA | 0.981 |
| ACAGTCAAAC | 1.07 |
| ACAGTCCACC | 1.11 |
| ACAGTCCCCT | 1.04 |
| ACAGTGTG | 1 |
| ACAGTTATGA | 0.998 |
| ACAGTTGAAA | 0.996 |
| ACAGTTGGGG | 1.04 |
| ACAGTTGTGT | 1.02 |
| ACAGTTTAAA | 0.995 |
| ACAGTTTCG | 0.989 |
| ACAGTTTCGC | 1.02 |
| ACATAACATA | 1.13 |
| ACATAAGGAT | 1.08 |
| ACATAATGA | 1.01 |
| ACATAGAAGG | 1.03 |
| ACATAGGACC | 1.04 |
| ACATATCCCT | 1.06 |
| ACATCAGTGG | 1.03 |
| ACATCAGTTA | 1.02 |
| ACATCATCGG | 1.02 |
| ACATCGGATA | 1.03 |

| Sequence | switch fluorescence ratio |
| --- | --- |
| ACATCTATAG | 0.953 |
| ACATCTCAGA | 0.983 |
| ACATCTTTGC | 0.999 |
| ACATGAGTTT | 0.992 |
| ACATGCAGCG | 1.01 |
| ACATGCAGT | 0.992 |
| ACATGCATGC | 0.993 |
| ACATGCGCAG | 1.02 |
| ACATGGAGTT | 0.992 |
| ACATGGTGTT | 1.05 |
| ACATGTAACA | 1.01 |
| ACATGTGAAA | 1.01 |
| ACATGTGTGA | 1.03 |
| ACATTAACTT | 1.09 |
| ACATTCAGGA | 1.01 |
| ACATTCGGCC | 1.02 |
| ACATTCTCG | 1.02 |
| ACATTGTCTT | 0.996 |
| ACATTTGCTA | 1.01 |
